Where “and” joins values, the source holds several entries; their conditions need not be identical. Identical values can stand only once. Further values from the same series stand in other lists.
System: DUSP6 mRNA in Capan-2 xenograft tumors
Experiment: In vivo PD by DUSP6 qPCR and PK/PD relationship
Design: species or system mouse
Description: Tumor-bearing animals were randomized and assigned into groups (n = 1–10/group). The vehicle at 10 mL/kg or RMC-6236 at indicated doses was administered via oral gavage daily, and animals were treated for 28 days, or up to 90 days if PFS was being assessed. […] For single-dose PKPD study, mice were randomized and assigned into groups (n = 3/dose/time point). A single dose of RMC-6236 was administered orally at either 3, 10, or 25 mg/kg. Blood and tissues, including the tumor, brain, colon, ear skin, and muscle, were harvested at indicated time points. Whole blood was collected in K2EDTA Microtainer tubes, incubated for 5 minutes, and snap-frozen in liquid nitrogen. The tissue was either fixed in 10% formalin or snap-frozen in liquid nitrogen for further analysis.
RNA was extracted from at least 20 mg of tissue using an RNeasy Mini Kit (Qiagen, 74104) and a High-Throughput Tissue grinder following the manufacturer's protocol. Reverse transcription was carried out using High-Capacity cDNA Reverse Transcription Kit (ABI, 4368814) according to the manufacturer's protocol. The cDNA product was used for qPCR analysis using TaqMan Gene-Expression Master Mix (ABI, 4369016). TaqMan primer probes specific to DUSP6 (human—Hs00737962_m1, murine—Mm00518185_m1, FAM-MGB) and 18S (RNA18S1; human—Hs99999901_s1, murine—Mm03928990_g1, FAM-MGB, used as an internal control gene) were used to detect the levels from each sample in duplicates using a 10 µL final reaction volume in a 384-well clear optical reaction plate. For qPCR, Ct values of DUSP6 and 18S were obtained for analysis. DUSP6 Ct value was normalized to 18S, and then the mean relative mRNA expression levels of each group were normalized to the vehicle control group. Values were plotted as relative change in mRNA expression compared with vehicle. Means ± SEM were shown.
Concentrations of RMC-6236 in tumor or normal tissues and percentage of DUSP6 inhibition as compared with the vehicle control from individual animals were collected and analyzed post a single dose of RMC-6236 ranging from 0.3 to 100 mg/kg (Supplementary Table S6). A 3-parameter sigmoidal exposure–response model was fitted to the data in GraphPad Prism to derive EC50 and EC90 values.

In the case of `CCn1c(-c2cc(N3CCN(C)CC3)cnc2[C@H](C)OC)c2c3cc(ccc31)-c1csc(n1)C[C@H](NC(=O)[C@H]1C[C@@H]1C)C(=O)N1CCC[C@H](N1)C(=O)OCC(C)(C)C2` [RMC-6236], the “% inhibition of DUSP6 vs control” value (Capan-2, study Capan-2 #3_PHA 2020, 10 mg/kg, 24h) is reported as 92.6008%, the “% inhibition of DUSP6 vs control” value (Capan-2, study Capan-2 #3_PHA 2023, 3 mg/kg, 8h) is reported as 93.234% and 85.4464% and 92.7985% and the “% inhibition of DUSP6 vs control” value (Capan-2, study Capan-2 #3_PHA 2023, 10 mg/kg, 8h) is reported as 98.5776% and 98.8039% and 97.1847%. For the same molecule, the “% inhibition of DUSP6 vs control” value (Capan-2, study Capan-2 #3_PHA 2023, 25 mg/kg, 8h) was 99.4323% and 98.6775% and 98.783%, the “% inhibition of DUSP6 vs control” value (Capan-2, study Capan-2 #3_PHA 2023, 50 mg/kg, 8h) was 98.6308% and 99.0149% and 99.3364% and the “% inhibition of DUSP6 vs control” value (Capan-2, study Capan-2 #3_PHA 2023, 100 mg/kg, 8h) was 99.0285%.

— publication PMC11149917, “Translational and Therapeutic Evaluation of RAS-GTP Inhibition by RMC-6236 in RAS-Driven Cancers” (Cancer Discovery, 2024)
